Among the data in the antibiotic and cytotoxicity screens of Wong et al. (2023) are cytotoxicity call and growth inhibition call values, retold here.

Some of the results follow.

In assay [1] the test system is HSkMC (human skeletal muscle cells). As to the kind of experiment: cytotoxicity call (relative viability < 0.9). The following applies: 10 µM.
In assay [2] the test system is HepG2. As to the kind of experiment: cytotoxicity call (relative viability < 0.9). The following applies: 10 µM.
Assay [3] deals with S. aureus RN4220. The assay is described as follows: growth inhibition call (relative growth <= 0.2). To be noted: 50 µM.

Consider `COc1ccc(NC(=O)Nc2ccc3c(c2)C(=O)N([C@@H](C)CO)C[C@@H](C)[C@H](CN(C)S(=O)(=O)c2ccc(C)cc2)OCCCC[C@@H](C)O3)cc1`, for which the cytotoxicity call in assay [1] and in assay [2] was “inactive” throughout. For the same compound, the growth inhibition call in assay [3] is “inactive”.
With `CN1C(=O)c2cc(NS(C)(=O)=O)ccc2OC[C@@H]2O[C@H](CC(=O)N3CCOCC3)CC[C@@H]21`, the cytotoxicity call in assay [1] and in assay [2] was “inactive” throughout. Besides, the growth inhibition call in assay [3] was “inactive”.
On to `COc1ccc2c3c([nH]c2c1)[C@@H](CO)N(C[C@]13CCN(CC1)Cc1cc(on1)-c1ccccc1)C(=O)Nc1ccc(cc1)F`, for which the cytotoxicity call in assay [1] is “active”. Moreover, the cytotoxicity call in assay [2] is “inactive”. Moreover, the growth inhibition call in assay [3] was “inactive”.
For the compound `CNC[C@H]1OCCCC[C@H](C)Oc2ccc(NS(=O)(=O)c3c(C)noc3C)cc2C(=O)N([C@@H](C)CO)C[C@H]1C`, the cytotoxicity call in assay [1] and in assay [2] was “inactive” in each case. In assay [3], the growth inhibition call is “inactive”.
In the case of `C[C@H](CO)N1C[C@H](C)[C@H](CN(C)C(=O)Nc2ccc3c(c2)OCO3)OCc2ccccc2-c2c(n(C)c3ccccc23)C1=O`, the cytotoxicity call in assay [1] and in assay [2] was “inactive” throughout. In assay [3], the growth inhibition call is “inactive”.
As to `COc1ccccc1[C@@H](NC(=O)C1CCN(CCOc2ccc(Cl)cc2Cl)CC1)c1ccccn1`, the cytotoxicity call in assay [1] and in assay [2] was “inactive” each time. Further, the growth inhibition call in assay [3] was “inactive”.
For the compound `CC1=C(/C=C/C(C)=C/C=C/C(C)=C/C(=O)O)C(C)(C)CCC1`, the cytotoxicity call in assay [1] and in assay [2] was “inactive” in each case. Besides, the growth inhibition call in assay [3] is “inactive”.
Take `COc1ccc(CN(C)C[C@H]2Oc3c(NC(=O)Nc4cccc5ccccc45)cccc3C(=O)N([C@H](C)CO)C[C@H]2C)cc1`: the cytotoxicity call in assay [1] and in assay [2] was “inactive” throughout. For the same compound, the growth inhibition call in assay [3] was “inactive”.
`CCCCOC(=O)CSc1n[nH]c(=O)[nH]c1=O`: the cytotoxicity call in assay [1] and in assay [2] was “inactive” each time. Also, the growth inhibition call in assay [3] is “inactive”.
Take `C[C@@H]1CN([C@H](C)CO)C(=O)c2cc(C#CC3(O)CCCC3)cnc2O[C@H]1CN(C)C(=O)Cc1cccnc1`: the cytotoxicity call in assay [1] and in assay [2] was “inactive” in each case. In assay [3], the growth inhibition call is “inactive”.
For the compound `O=C(Cc1ccncc1)Nc1ccc2c(c1)[C@@H]1C[C@@H](CC(=O)N3CCc4ccccc4C3)O[C@@H](CO)[C@@H]1O2`, the cytotoxicity call in assay [1] and in assay [2] was “inactive” each time. In assay [3], the growth inhibition call was “inactive”.
Regarding `O=C(C[C@H]1CC[C@H]2[C@@H](COC[C@H](O)CN2S(=O)(=O)c2ccccc2)O1)NCc1ccc(-c2ccccc2)cc1`, the cytotoxicity call in assay [1] and in assay [2] was “inactive” each time. For the same compound, the growth inhibition call in assay [3] is “inactive”.
As for `COC(=O)c1c(C#N)c(N)nc2c1CCC2`, the cytotoxicity call in assay [1] and in assay [2] was “inactive” throughout. For the same compound, the growth inhibition call in assay [3] was “inactive”.
Consider `C[C@@H]1CCCCO[C@@H](CN(C)C(=O)Nc2ccc(C(F)(F)F)cc2)[C@H](C)CN([C@H](C)CO)C(=O)c2cc(NC(=O)NC3CCCCC3)ccc2O1`, for which, in assay [1], the cytotoxicity call was “inactive”. The cytotoxicity call in assay [2] is “active”. Also, the growth inhibition call in assay [3] is “inactive”.
`COc1ccc(S(=O)(=O)N(C)C[C@@H]2Oc3ccc(N(C)C)cc3CC(=O)N([C@@H](C)CO)C[C@@H]2C)cc1`: the cytotoxicity call in assay [1] and in assay [2] was “inactive” in each case. In assay [3], the growth inhibition call was “inactive”.
For `C[C@@H]1CN([C@@H](C)CO)C(=O)c2cc(NS(=O)(=O)c3ccccc3)ccc2O[C@H]1CN(C)Cc1ccncc1`, the cytotoxicity call in assay [1] and in assay [2] was “inactive” each time. In addition, the growth inhibition call in assay [3] was “inactive”.
Turning to `COc1ccc(S(=O)(=O)Nc2cccc3c2O[C@@H](CN(C)CC2CC2)[C@H](C)CN([C@H](C)CO)C3=O)cc1`, the cytotoxicity call in assay [1] and in assay [2] was “inactive” each time. Also, the growth inhibition call in assay [3] was “inactive”.
Turning to `C[C@H](CO)N1C[C@H](C)[C@@H](CN(C)S(=O)(=O)c2cn(C)cn2)Oc2ccc(NS(=O)(=O)c3ccc(Cl)cc3)cc2C1=O`, the cytotoxicity call in assay [1] and in assay [2] was “inactive” in each case. Further, the growth inhibition call in assay [3] is “inactive”.
Consider `Cc1ccc(S(=O)(=O)Nc2ccc3c(c2)C(=O)N([C@@H](C)CO)C[C@H](C)[C@@H](CN(C)S(=O)(=O)c2ccc(C)cc2)OCCCC[C@H](C)O3)cc1`, for which the cytotoxicity call in assay [1] and in assay [2] was “inactive” throughout. The growth inhibition call in assay [3] is “inactive”.
Consider `O=C(N[C@H]1CC[C@H](CC(=O)N2CCOCC2)O[C@@H]1CO)c1ccccn1`, for which the cytotoxicity call in assay [1] and in assay [2] was “inactive” in each case. Besides, in assay [3], the growth inhibition call is “inactive”.
Take `COc1cccc(NC(=O)N(C)C[C@H]2OCc3ccccc3-c3c(n(C)c4ccccc34)C(=O)N([C@H](C)CO)C[C@@H]2C)c1`: the cytotoxicity call in assay [1] and in assay [2] was “inactive” in each case. Also, the growth inhibition call in assay [3] was “inactive”.
Consider `O=C(O)[C@H]1CCCC[C@H]1C(=O)N1CCc2ccccc2[C@H]1CNS(=O)(=O)c1ccc([N+](=O)[O-])cc1`, for which the cytotoxicity call in assay [1] and in assay [2] was “inactive” each time. Also, the growth inhibition call in assay [3] was “inactive”.
Regarding `CN1C[C@H](O)COC[C@@H]2O[C@@H](CC(=O)N3CCN(c4ccccc4)CC3)CC[C@H]21`, the cytotoxicity call in assay [1] and in assay [2] was “inactive” in each case. Also, the growth inhibition call in assay [3] is “inactive”.
`Cc1ccc(S(=O)(=O)Nc2ccc3c(c2)CC(=O)N([C@H](C)CO)C[C@H](C)[C@@H](CN(C)CC2CC2)O3)cc1`: the cytotoxicity call in assay [1] and in assay [2] was “inactive” in each case. The growth inhibition call in assay [3] is “inactive”.
As to `COC(=O)C1=C(C)NC(C)=C(C(=O)OC)C1`, the cytotoxicity call in assay [1] and in assay [2] was “inactive” each time. Further, the growth inhibition call in assay [3] is “inactive”.
As to `Cc1ccc(S(=O)(=O)Nc2cccc3c2O[C@@H](CN(C)S(=O)(=O)c2ccc(F)cc2)[C@H](C)CN([C@@H](C)CO)C3=O)cc1`, the cytotoxicity call in assay [1] and in assay [2] was “inactive” each time. In addition, the growth inhibition call in assay [3] was “inactive”.
